Experimental data as given in the supplement of paper PMC4967469.
By IC50 is meant the dose at which the fit gives 50% viability; fits outside the tested doses are given as limits. AUC, from the same fit, is the share of area under the viability curve across the 256-fold dose range; the more sensitive the line, the further below 1. For some assays here: An inferred top dose comes from the curve model; the source does not state it. For some assays here: Where an entry number is given, a second screen of the drug exists; the two often differ.

Tests used:
Experiment in all cases: Viability of human cancer cell lines after 72 h of drug (GDSC screen)
VNLG/124 = compound: CCCC(=O)OCc1ccc(OC(=O)/C=C(C)/C=C/C=C(C)/C=C/C2=C(C)CCCC2(C)C)cc1 [VNLG/124]; conditions: top dose 5.12 µM; top dose inferred
Protocol: (§1)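 Human cancer cell lines in 384-well plates, medium with 10% serum, drug for 72 h over a 256-fold dose range (nine 2-fold or five 4-fold steps up to the top dose). Adherent lines were fixed and stained with the nucleic acid dye Syto60, suspension lines read with resazurin; signal relative to control wells, capped at 0 and 100%. One two-parameter sigmoid per drug and line, fitted in a mixed model over all curves with the slope shared within a line.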

Bleomycin = compound: Cc1c(N)nc([C@H](CC(N)=O)NC[C@H](N)C(N)=O)nc1C(=O)N[C@H](C(=O)N[C@H](C)[C@@H](O)[C@H](C)C(=O)N[C@H](C(=O)NCCc1nc(-c2nc(C(=O)NCCC[S+](C)C)cs2)cs1)[C@@H](C)O)[C@@H](OC1OC(CO)C(O)C(O)C1OC1OC(CO)C(O)C(OC(N)=O)C1O)c1cnc[nH]1 [Bleomycin]
Protocol: as §1

Masitinib = compound: Cc1ccc(NC(=O)c2ccc(CN3CCN(C)CC3)cc2)cc1Nc1nc(-c2cccnc2)cs1 [Masitinib]; conditions: top dose 20 µM
Protocol: as §1

LAQ824 = compound: O=C(/C=C/c1ccc(CN(CCO)CCc2c[nH]c3ccccc23)cc1)NO [LAQ824]; conditions: top dose 1.024 µM; top dose inferred
Protocol: as §1

OSI-930 = compound: O=C(Nc1ccc(OC(F)(F)F)cc1)c1sccc1NCc1ccnc2ccccc12 [OSI-930]; conditions: top dose 10.24 µM
Protocol: as §1

BX-912 = compound: O=C(Nc1cccc(Nc2ncc(Br)c(NCCc3cnc[nH]3)n2)c1)N1CCCC1 [BX-912]; conditions: top dose 10.24 µM; top dose inferred
Protocol: as §1

NSC-87877 = compound: O=S(=O)(O)c1ccc2cc(N=Nc3cc(S(=O)(=O)O)c4cccnc4c3O)ccc2c1 [NSC-87877]; conditions: top dose 16 µM; top dose inferred
Protocol: as §1

Elesclomol = compound: CN(NC(=O)CC(=O)NN(C)C(=S)c1ccccc1)C(=S)c1ccccc1 [Elesclomol]; conditions: top dose 0.2 µM; top dose inferred
Protocol: as §1

[1] = top dose 64 µM, screen: GDSC drug entry 190
[2] = top dose 50 µM, screen: GDSC drug entry 1378, top dose inferred

Cell Line	AUC (VNLG/124)	IC50 (VNLG/124)	AUC (Bleomycin; [1])	IC50 (Bleomycin; [1])	AUC (Masitinib)	IC50 (Masitinib)	AUC (LAQ824)	IC50 (LAQ824)	AUC (OSI-930)	IC50 (OSI-930)	AUC (BX-912)	IC50 (BX-912)	AUC (NSC-87877)	IC50 (NSC-87877)	AUC (Bleomycin; [2])	IC50 (Bleomycin; [2])	AUC (Elesclomol)	IC50 (Elesclomol)
BC-3 (B-cell lymphoma, suspension)	0.922	> 5.12 µM	0.138	0.352 µM	0.833	11.1 µM	0.459	0.0501 µM	0.96	> 10.2 µM	0.853	6.73 µM	0.982	> 16 µM				
PANC-10-05 (pancreas, adherent)	0.952	> 5.12 µM	0.287	0.834 µM	0.879	> 20 µM	0.435	0.0403 µM	0.963	> 10.2 µM	0.897	> 10.2 µM	0.98	> 16 µM	0.543	4.23 µM		
CAL-148 (breast, suspension)	0.974	> 5.12 µM	0.527	4.71 µM	0.963	> 20 µM	0.43	0.0419 µM	0.946	> 10.2 µM	0.984	> 10.2 µM	0.976	> 16 µM				
NCI-H1299 (large cell lung carcinoma, adherent)	0.983	> 5.12 µM	0.273	0.771 µM	0.981	> 20 µM			0.983	> 10.2 µM	0.945	> 10.2 µM			0.474	2.61 µM		
HCC1806 (breast, adherent)	0.981	> 5.12 µM	0.1	< 0.25 µM	0.886	19 µM	0.556	0.0898 µM	0.973	> 10.2 µM	0.958	> 10.2 µM	0.876	13.7 µM	0.152	0.299 µM		
JHOS-4 (ovary, adherent)															0.842	> 50 µM	0.212	0.00116 µM
CAMA-1 (breast, adherent)	0.955	> 5.12 µM	0.635	10.4 µM	0.901	> 20 µM	0.443	0.0431 µM	0.941	> 10.2 µM	0.955	> 10.2 µM	0.975	> 16 µM	0.964	> 50 µM		
Caov-3 (ovary, adherent)	0.991	> 5.12 µM	0.686	12.3 µM	0.884	17.2 µM	0.9	> 1.02 µM	0.971	> 10.2 µM	0.652	1.6 µM	0.983	> 16 µM				
H-EMC-SS (chondrosarcoma, adherent)	0.969	> 5.12 µM	0.811	47 µM	0.97	> 20 µM	0.801	0.681 µM	0.976	> 10.2 µM	0.647	1.85 µM	0.976	> 16 µM	0.6	6.4 µM		
